The whole screen tested about 45,000 compounds, of which about 200 (0.44%) were called active. Inconclusive results (about 7%) are left out. Calls come from the whole dose curve; as a rule, active = well fitted activation curve with a large enough effect; inconclusive = small, poorly fitted or top-dose-only effect; inactive = no such curve, though single readings can be large or run the other way. Some of the results follow.

The assay is described as follows: qHTS of TDP-43 Inhibitors: NCGC Sytravon Library Screen. Note: 0% is about no effect; nearly all actives have a fitted effect of over 55% in size. Conditions: yeast TDP-43 toxicity rescue, BacTiter-Glo growth, 24 h; series mostly up to 46.1 µM; growth rescue (activation): at the top concentration. An outline of the steps: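 TDP-43-expressing yeast, pregrown in raffinose, seeded at OD600 0.02 in galactose medium with compound for 24 hr at 30 deg C. Growth read by BacTiter-Glo luminescence, so rescue of toxicity appears as activation.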
On the technique in general: Quantitative high-throughput screening tests each substance at several concentrations.
`Cc1ccc(NC(=O)Nc2ccc3c(c2)nc(C)n3C)cc1`: the “growth rescue (activation)” value was inactive: -7.4%.

Regarding `CCOC(=O)C1CCN(Cc2c(O)c3ccccc3oc2=O)CC1`, the “growth rescue (activation)” value is inactive: -9.41%.

For the compound `COC(=O)c1sc2nc(CN3CCN(c4cccc(C(F)(F)F)c4)CC3)[nH]c(=O)c2c1C`, the “growth rescue (activation)” value was inactive: 6.47%.

In the case of `CSCCC(NC(=O)c1ccccc1C)C(=O)O` (centres undefined), the “growth rescue (activation)” value was inactive: 11.4%.

For the compound `CC(=O)Nc1ccc(-c2ccnc3c2CC(C)(C(=O)NCC2CCOCC2)O3)cc1` (centres undefined), the “growth rescue (activation)” value is inactive: 2.67%.

In the case of `Cc1ccc(NC(=O)C2(c3ccccc3)CCOCC2)c([N+](=O)[O-])c1`, the “growth rescue (activation)” value was inactive: 14.2%.

Consider `CC(C)[C@H](NC(=O)c1ccccc1)C(=O)N1CCc2ccccc21`, for which the “growth rescue (activation)” value was inactive: 0.7%.

Consider `CCN(CC)C(=O)c1ccccc1NC(=O)CN1C(=O)c2ccccc2S1(=O)=O`, for which the “growth rescue (activation)” value is inactive: -6.71%.

Regarding `COCCc1ccc(OC2(C)CCN(Cc3cccc(OCOC)c3)C2)cc1` (centres undefined), the “growth rescue (activation)” value was inactive: -9.3%.

As to `CN1CCC(NC(=O)Cc2c(F)cccc2Cl)CC1`, the “growth rescue (activation)” value is inactive: -15.1%.

Regarding `CCCc1ccc(O)c(N=Cc2cc(Br)cc(OCC)c2O)c1`, the “growth rescue (activation)” value is inactive: 20.8%.

Turning to `CC(=O)c1sc(NC(=O)c2ccccc2C)nc1C`, the “growth rescue (activation)” value was inactive: 16.1%.

For `Cc1nn2c(SCC(=O)c3cccs3)cc(C(C)(C)C)nc2c1-c1ccccc1`, the “growth rescue (activation)” value was inactive: 1.89%.

As for `COC(c1ccccc1)c1nnc(CCC(=O)N2CCCCCCC2)o1` (centres undefined), the “growth rescue (activation)” value was inactive: 5.7%.

In the case of `O=C(Nc1nc(-c2cccc3ccccc23)cs1)c1ccc2c(c1)S(=O)(=O)c1ccccc1C2=O`, the “growth rescue (activation)” value was inactive: -0.225%.

Turning to `CC(=O)NCc1ccc(C(=O)CCl)cc1`, the “growth rescue (activation)” value was inactive: 21.9%.

Regarding `O=C(CN1CCN(c2ccccc2)CC1)Nc1cccc([N+](=O)[O-])c1`, the “growth rescue (activation)” value was inactive: 0.14%.

In the case of `Cc1cccc(C)c1NC(=O)CSC(=S)N1CCCC1`, the “growth rescue (activation)” value is inactive: 18.1%.

`O=C(CN1C(=O)CSc2ccc(S(=O)(=O)N3CCOCC3)cc21)NCc1cccnc1`: the “growth rescue (activation)” value was inactive: -13%.

Consider `COC(=O)C1=C(C)N(C)C(=O)NC1c1ccccc1` (centres undefined), for which the “growth rescue (activation)” value is inactive: 1.73%.

As to `Cn1c(CCNC(=O)c2ccco2)nc2cc(NC(=O)c3ccccc3Cl)ccc21`, the “growth rescue (activation)” value is inactive: -4.87%.

On to `COc1cccc(C(=O)Nc2ccc3[nH]ncc3c2)c1`, for which the “growth rescue (activation)” value was inactive: 9.53%.

For the compound `CCc1ccc(Nc2nnc(SCn3nnc4ccccc4c3=O)s2)cc1`, the “growth rescue (activation)” value was inactive: 2.76%.

With `O=C(CC1S/C(=N\S(=O)(=O)c2ccccc2)N(c2ccccc2)C1=O)Nc1ccc(F)cc1` (centres undefined), the “growth rescue (activation)” value is inactive: 4.88%.

`CC(=O)c1ccc(OCc2cc(C(=O)N(C)Cc3ccccn3)no2)cc1`: the “growth rescue (activation)” value was inactive: 21.7%.

For `Cc1ccc(CNC(=O)CCNS(=O)(=O)c2ccc(Br)s2)cc1`, the “growth rescue (activation)” value is inactive: 14.7%.

Turning to `O=C(Cc1cc(C(=O)O)c2ccccc2n1)Nc1ccccc1`, the “growth rescue (activation)” value is inactive: -0.318%.

Consider `Cc1cc(C)nc(NC(=O)/C=C/c2ccc(Cl)cc2)n1`, for which the “growth rescue (activation)” value was inactive: 21.9%.

Consider `CC(C)C1Oc2ccccc2N(CC(=O)N2CCOCC2)C1=O` (centres undefined), for which the “growth rescue (activation)” value was inactive: 8.89%.

For `CCCn1c(C)cc(C(=O)COC(=O)CN=C2NS(=O)(=O)c3ccccc32)c1C`, the “growth rescue (activation)” value is inactive: 20.8%.

For `COC(=O)c1ccc(CSC2=NCCS2)cc1`, the “growth rescue (activation)” value is inactive: 18.7%.

In the case of `Cc1c(NS(=O)(=O)c2cc(C(=O)OCC(=O)N3CCC(C)CC3)ccc2Cl)c(=O)n(-c2ccccc2)n1C`, the “growth rescue (activation)” value is inactive: 16.8%.

As for `CC(=O)Nc1ccc(NC(=O)C/C(C)=N/NC(=O)c2cccc3ccccc23)cc1`, the “growth rescue (activation)” value was inactive: 18.9%.

Regarding `Cc1ccc(CNC(=O)C2CCN(S(=O)(=O)c3ccc(Br)s3)CC2)cc1`, the “growth rescue (activation)” value was inactive: -3.02%.

Consider `CC(/C=C/c1ccccc1)=N\NC(=O)Cn1cncn1`, for which the “growth rescue (activation)” value was inactive: 16.8%.

Regarding `COc1cc(OC)c(C2C3=C(CCCC3=O)Nc3nc4ccccc4n32)cc1OC` (centres undefined), the “growth rescue (activation)” value is inactive: 9.05%.

As to `Cc1cc(NC(=O)COc2ccc(C(C)(C)C)cc2)no1`, the “growth rescue (activation)” value is inactive: 4.67%.

Regarding `COCC(=O)N1CCc2ccc(NC(=O)c3ccc(C(F)(F)F)cc3)cc2C1`, the “growth rescue (activation)” value was inactive: 9.93%.

For the compound `COc1cc(CNCc2ccco2)cc(OC)c1O`, the “growth rescue (activation)” value is inactive: 4.27%.

Turning to `CCCCN(C)CCCNC(=O)c1cc(-c2cccs2)nc2ccccc12`, the “growth rescue (activation)” value was inactive: -8.87%.

Take `CCOC(=O)Cn1c(=O)oc2cc(S(=O)(=O)N(C)c3cccc(C)c3)ccc21`: the “growth rescue (activation)” value is inactive: 9.04%.

As for `Cc1ccc(-n2ncc3c(Nc4cccc(C(=O)O)c4)ncnc32)cc1`, the Potency result was “inactive”.

In the case of `O=C(Nc1ccccc1N1CCN(C(=O)c2ccccc2)CC1)c1ccco1`, the “growth rescue (activation)” value was inactive: 17%.

Turning to `Cc1nc2ccc(NS(=O)(=O)c3cccc([N+](=O)[O-])c3)cc2s1`, the “growth rescue (activation)” value is inactive: 27.8%.

For the compound `COc1ccc(NC(=O)CCc2nc3ccccc3s2)c(OC)c1`, the “growth rescue (activation)” value was inactive: -17.6%.

Consider `COc1ccc(N2CCN(C(=O)/C=C/c3ccco3)CC2)cc1`, for which the “growth rescue (activation)” value is inactive: 5.96%.

With `COc1cc(Br)cc(C2C3=C(CCCC3=O)N(c3ccc(F)cc3)C3=C2C(=O)CCC3)c1O`, the “growth rescue (activation)” value is inactive: 4.69%.

As for `Cc1ccc(-c2cc(C(=O)Nc3cccc(S(=O)(=O)N(C)C)c3)c3ccccc3n2)o1`, the “growth rescue (activation)” value was inactive: 6.74%.

Take `OC[C@@H]1CN(Cc2cccs2)C[C@H](n2cnc3c(NCc4ccco4)ncnc32)O1`: the “growth rescue (activation)” value is inactive: 8.33%.

In the case of `CC(C)c1ccc(S(=O)(=O)N2CCN(C(C)C(=O)Nc3ccccc3-c3ccccc3)CC2)cc1` (centres undefined), the “growth rescue (activation)” value is inactive: 15.2%.

In the case of `Cc1ccc(/C=C2\SC(=S)N(CCC(=O)NNC(=O)c3ccccc3O)C2=O)cc1`, the “growth rescue (activation)” value is inactive: 10.1%.

In the case of `CNC(=S)N/N=C/c1ccc(-c2cccc(C(=O)O)c2)o1`, the “growth rescue (activation)” value was inactive: -39.8%.

`COC(=O)c1c(C)[nH]c(C(=O)CSc2nnnn2-c2ccccc2)c1C`: the “growth rescue (activation)” value is inactive: 9.58%.

Regarding `COc1ccc(NC(=O)CCC(=O)c2cc(C)sc2C)cc1`, the “growth rescue (activation)” value was inactive: 15.5%.

These data come from PubChem BioAssay AID1347073 (National Center for Advancing Translational Sciences (NCATS), 2019).
